About 50,000 (12%) of roughly 420,000 compounds were called active. Inconclusive means that the source gave no clear call. Such entries were picked first, then a sample of the others. Calls come from the whole dose curve; as a rule, active = well fitted inhibition curve with a large enough effect; inconclusive = small, poorly fitted or top-dose-only effect; inactive = flat fitted curve, though single readings scatter. No potency is given beside an inconclusive call; the fits are too rough.
Assay: qHTS for Inhibitors of human tyrosyl-DNA phosphodiesterase 1 (TDP1): qHTS in cells in presence of CPT; note: nearly all actives have a fitted effect of over 55% in size
Settings: chicken DT40 Tdp1-/-;hTDP1 cells + 20 nM CPT, ATP luminescence, 48 h; activity change, negative = growth inhibition: at 46.2 µM (top of the series) unless noted
Procedure, shortened: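 Chicken DT40 Tdp1-/- cells stably complemented with human TDP1 were seeded at 400 cells/well in medium containing 20 nM camptothecin, exposed to pin-transferred compounds, and grown at 37 °C for at least 48 hr. Viability was read as ATP luminescence.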
% is set by controls: 0 for no effect and ±100 for the full control effect; potency is the fitted concentration of half-maximal effect; tags give direction and shape of the fitted curve.

Row | SMILES | Potency | activity change, negative = growth inhibition
1 | CC(C)C(=O)NC(c1cccs1)c1cc([N+](=O)[O-])c2cccnc2c1O (stereo unspecified) | inconclusive [inhibitor, single point] | –
2 | CC1CCCN(S(=O)(=O)c2ccc([N+](=O)[O-])cc2)C1 (stereo unspecified) | inactive | –
3 | CCCOC(=O)c1ccc(NC(=O)c2ccc(Br)o2)cc1 | inconclusive [inhibitor, single point] | –
4 | COc1ccc(C2=Nn3c(C)nnc3SC2)cc1 | inconclusive [inhibitor, single point] | –
5 | CC(CNC(=O)c1ccc(Nc2nc3ccccc3n3nnnc23)cc1)c1ccccc1 (stereo unspecified) | inconclusive [inhibitor, single point] | –
6 | Cc1nn(CC(=O)Nc2nc3ccccc3s2)c(C)c1[N+](=O)[O-] | – | inconclusive: -8.24% [inhibitor]
7 | O=C(CCNC(=O)c1ccc(Cl)cc1)Nc1ccccc1N1CCCCC1 | inconclusive [inhibitor, single point] | –
8 | Cc1cccc(-n2nc([N+](=O)[O-])c(N3CCN(C(=O)c4ccco4)CC3)[n+]2[O-])c1 | – | inconclusive: -31.4% [inhibitor]
9 | CC(=O)N1CCOc2ccc(S(=O)(=O)N3CCC(C(=O)NCc4ccc(Cl)cc4)CC3)cc21 | inconclusive [inhibitor, single point] | –
10 | Cc1cc(C)cc(NC(=S)N=Nc2c(O)n(C)c3ccc(S(=O)(=O)N4CCOCC4)cc23)c1 | active: 1.16 µM | –
11 | CCOC(=O)c1sc(N/N=C/c2cccc(C)c2)nc1C | inconclusive [inhibitor, single point] | –
12 | Cc1ccccc1C(=O)N1CCC(C(=O)N(C)CC(=O)Nc2cccc(F)c2)CC1 | inactive | –
13 | CC(=O)Nc1cccc(-n2c(=O)n(Cc3ccccc3)c(=O)c3[nH]cnc32)c1 | inactive | –
14 | CCCc1cc(=O)[nH]c(/N=C(/NC(=O)c2ccccc2)Nc2ccc3c(c2)OCCO3)n1 | inactive | –
15 | C/C(=N\Nc1nc2ccccc2[nH]1)c1cccs1 | inconclusive [inhibitor, single point] | –
16 | CCC(=O)N1CCN(c2nc3c(C)cccc3s2)CC1 | inconclusive [inhibitor, single point] | –
17 | CC1CCCCC1NS(=O)(=O)c1ccc(S(=O)(=O)N2CCN(CCC#N)CC2)cc1 (stereo unspecified) | inactive | –
18 | O=C(C1CCN(S(=O)(=O)N2CCC3(CC2)OCCO3)CC1)N1CCC(Cc2ccccc2)CC1 | inconclusive [inhibitor, partial curve] | –
19 | COc1ccc(S(=O)(=O)N2CCOC2CNC(=O)C(=O)NCc2ccc3c(c2)OCO3)cc1C (stereo unspecified) | inconclusive [inhibitor, single point] | –
20 | CCc1cccc(NC(=O)COC(=O)CSc2ccc(C)cc2)c1 | inactive | –
21 | COc1ccc(C2CC(=O)c3c([nH]c(C(=O)OC(C)C)c3C)C2)cc1OC (stereo unspecified) | active: 23.1 µM | –
22 | Cn1c(CCN2CCCCC2)nc2cc(NC(=O)Nc3ccccc3)ccc21 | inconclusive [inhibitor, single point] | –
23 | CCOC(=O)N1CCN(C(=O)Cc2ccc(Cl)cc2)CC1 | inactive | –

Row | SMILES | Potency | activity change, negative = growth inhibition
24 | CC(=O)N1CCN(c2ccc(NC(=O)c3cccc([N+](=O)[O-])c3)cc2)CC1 | inactive | –
25 | Fc1cccc(CSc2ncnc3c2ncn3C2CCCCO2)c1 (stereo unspecified) | inconclusive [inhibitor, partial curve] | –
26 | Nc1c(C(=O)NCc2ccccc2)sc2nc(N3CCOCC3)c3c(c12)CCCC3 | inconclusive [inhibitor, single point] | –
27 | Cc1cc(NS(=O)(=O)c2ccc(NC(=O)c3ccc([N+](=O)[O-])cc3)cc2)nc(C)n1 | inactive | –
28 | Cc1cc(C)n(-c2ccc3nnc(C)n3n2)n1 | inactive | –
29 | O=C1c2cccc3cccc(c23)N1Cc1cccc(F)c1 | inactive | –
30 | CCCCNC(=O)C1(C)CCN1C(=O)c1oc2ccccc2c1C (stereo unspecified) | inconclusive [inhibitor, single point] | –
31 | O=C(CNc1ccc2ccccc2c1)NNC1=NCCC1 | inactive | –
32 | COc1cc(-c2cc(C(=O)Nc3ccccc3N3CCOCC3)c3ccccc3n2)cc(OC)c1OC | active: 18.4 µM | –
33 | O=c1[nH]c(C2CCN(S(=O)(=O)c3ccc4c(c3)OCCO4)CC2)nc2c1nnn2Cc1ccc(F)cc1 | inconclusive [inhibitor, partial curve, poor fit] | –
34 | Cc1ccc(C(=O)N2CCN=C2SCc2ccc([N+](=O)[O-])cc2)cc1 | inconclusive [inhibitor, single point] | –
35 | O=C(Nc1ccccc1C(=O)NCc1cccnc1)c1ccccc1F | inactive | –
36 | COc1cc(NC(N)=S)c(OC)cc1Cl | inactive | –
37 | Cc1ccc2nc(SCC(=O)N3CCN(C(=O)c4ccco4)CC3)[nH]c2c1 | inconclusive [inhibitor, partial curve] | –
38 | C(=C\c1ccnc2ccccc12)/c1ccnc2ccccc12 | inconclusive [inhibitor, partial curve, poor fit] | –
39 | COC(=O)c1c(C)[nH]c(O)c1C=Nc1ccc(C(C)C)cc1 | inconclusive [inhibitor, single point] | –
40 | COc1cc(C(O)c2nc(-c3ccccc3OC)cs2)ccc1F (stereo unspecified) | inconclusive [inhibitor, partial curve] | –
41 | CCCCCCCCNc1ccc(/C=C/c2ccnc3ccccc23)cc1 | inconclusive [inhibitor, single point] | –
42 | Cc1ccc([N+](=O)[O-])c(Oc2ncnc3c2oc2ccccc23)c1 | inconclusive [inhibitor, partial curve] | –
43 | CCc1c(C)sc(NC(=O)CN2CCN(C(=O)c3ccco3)CC2)c1C(=O)OC | active: 18.4 µM | –
44 | COc1ccc(Br)cc1CN(C)C(=O)c1ccccc1SCC(=O)N1CCCC1 | inconclusive [inhibitor, single point] | –
45 | CCc1cccc(C)c1NC(=O)c1nc2ccccc2nc1N1CCCCC1 | inconclusive [inhibitor, partial curve] | –
46 | CC(C)C(O)C1CCN(Cc2nc(Cc3ccccc3Cl)no2)CC1 (stereo unspecified) | inconclusive [inhibitor, single point] | –

— PubChem BioAssay AID686979 (National Center for Advancing Translational Sciences (NCATS), 2013)
